Measurements: publication PMC3819392
These are yes or no findings as the source states them, for the method shown. Binding seen in cells or lysates may run through a third protein. Some entries that bind do so weakly or less than the wild type.

Amino acid sequences for entries named in this document (tags omitted).
UniProt P27986: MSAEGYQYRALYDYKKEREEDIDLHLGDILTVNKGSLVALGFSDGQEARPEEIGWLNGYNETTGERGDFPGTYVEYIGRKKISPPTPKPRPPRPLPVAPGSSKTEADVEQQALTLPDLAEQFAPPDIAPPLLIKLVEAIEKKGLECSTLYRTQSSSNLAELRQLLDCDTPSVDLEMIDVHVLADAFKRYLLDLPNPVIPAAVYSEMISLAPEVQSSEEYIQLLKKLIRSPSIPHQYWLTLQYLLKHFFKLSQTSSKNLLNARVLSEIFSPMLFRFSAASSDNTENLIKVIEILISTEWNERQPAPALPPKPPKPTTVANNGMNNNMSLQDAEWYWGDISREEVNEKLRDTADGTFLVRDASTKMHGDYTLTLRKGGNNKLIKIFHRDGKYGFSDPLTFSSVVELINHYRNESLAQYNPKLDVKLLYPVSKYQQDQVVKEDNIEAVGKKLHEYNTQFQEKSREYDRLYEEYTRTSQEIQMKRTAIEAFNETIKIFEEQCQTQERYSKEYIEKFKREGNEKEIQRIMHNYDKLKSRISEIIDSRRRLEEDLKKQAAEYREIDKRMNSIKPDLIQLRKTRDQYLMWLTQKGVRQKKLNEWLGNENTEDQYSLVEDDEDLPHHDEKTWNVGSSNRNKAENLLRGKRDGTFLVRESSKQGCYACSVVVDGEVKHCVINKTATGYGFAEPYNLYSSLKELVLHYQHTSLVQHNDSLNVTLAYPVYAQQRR
UniProt P42338: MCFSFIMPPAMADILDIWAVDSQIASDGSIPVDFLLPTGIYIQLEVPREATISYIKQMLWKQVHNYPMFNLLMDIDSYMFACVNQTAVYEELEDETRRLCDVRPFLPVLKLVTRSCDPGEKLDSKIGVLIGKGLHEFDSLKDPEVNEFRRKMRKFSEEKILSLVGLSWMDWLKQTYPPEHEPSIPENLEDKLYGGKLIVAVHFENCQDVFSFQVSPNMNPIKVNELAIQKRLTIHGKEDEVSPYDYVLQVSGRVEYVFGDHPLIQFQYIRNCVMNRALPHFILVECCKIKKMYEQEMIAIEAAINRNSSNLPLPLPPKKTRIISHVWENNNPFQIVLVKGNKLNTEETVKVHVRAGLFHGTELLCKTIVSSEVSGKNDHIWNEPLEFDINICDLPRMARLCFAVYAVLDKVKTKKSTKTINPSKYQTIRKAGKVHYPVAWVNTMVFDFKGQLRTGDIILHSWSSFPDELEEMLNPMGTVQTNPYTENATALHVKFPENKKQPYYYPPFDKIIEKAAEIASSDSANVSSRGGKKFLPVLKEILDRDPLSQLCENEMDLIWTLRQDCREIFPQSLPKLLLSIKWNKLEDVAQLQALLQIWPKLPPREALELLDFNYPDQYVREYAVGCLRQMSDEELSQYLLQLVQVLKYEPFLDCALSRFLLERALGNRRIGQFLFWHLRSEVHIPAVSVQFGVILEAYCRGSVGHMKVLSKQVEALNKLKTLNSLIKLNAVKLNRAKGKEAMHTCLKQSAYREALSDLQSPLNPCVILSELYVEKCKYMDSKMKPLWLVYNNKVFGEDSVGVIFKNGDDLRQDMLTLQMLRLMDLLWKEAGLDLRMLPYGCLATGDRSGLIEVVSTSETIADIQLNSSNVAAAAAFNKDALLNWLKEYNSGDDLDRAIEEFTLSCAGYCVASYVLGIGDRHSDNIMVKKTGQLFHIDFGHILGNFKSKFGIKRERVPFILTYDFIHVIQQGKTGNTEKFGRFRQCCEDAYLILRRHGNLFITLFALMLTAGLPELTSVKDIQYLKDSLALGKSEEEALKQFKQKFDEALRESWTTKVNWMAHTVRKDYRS

Molecular target: T1, HSP20 (HSPB6), wild-type human, overexpressed in HuH7 cells (human) (UniProt O14558)
T1 sequence: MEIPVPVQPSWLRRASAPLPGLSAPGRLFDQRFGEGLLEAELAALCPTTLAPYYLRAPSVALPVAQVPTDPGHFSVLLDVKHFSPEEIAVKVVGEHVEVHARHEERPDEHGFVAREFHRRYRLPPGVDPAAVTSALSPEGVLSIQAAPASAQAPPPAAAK
Assay: co-IP; Lysates of HSP20-overexpressing (or empty vector) HuH7 cells in TNE buffer (10 mM Tris-HCl pH 7.8, 1% Nonidet P-40, 150 mM NaCl, 1 mM EDTA, 1 mM DTT); antibody overnight at 4°C, Dynabeads protein A; Western blot; IP with antibodies to the partner or to HSP20

Substance	binding
PI3K p85 regulatory subunit, endogenous in HuH7 cells (from UniProt P27986 1-724)	binds
PI3K p110β catalytic subunit, endogenous in HuH7 cells (from UniProt P42338 1-1070)	binds
